According to article PMC12040169 (PLOS Biology, 2025):
Some of the results follow.

Each molecule was assayed on T1, C. trachomatis L2/434/Bu expressing GFP (CTL2-GFP). Settings: total inclusion area; 28.5 h, 10 µM; inhibitor.
T1 construct: L2/434/Bu GFP intracellular growth in HeLa cells
Set-up: species or system HeLa; C. trachomatis total inclusion area by high-content imaging, normalised to DMSO
Summary of the method: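 Host cell viability was gauged from Hoechst-stained nuclei counts, while chlamydial growth was taken from total inclusion area and inclusion number per well. Cells were fixed and imaged by high-content microscopy once bulk GFP and resorufin fluorescence had been measured.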
`O=C(Cn1c(C(F)(F)F)nc2ccccc21)NCCN1CCOCC1` [CBK267339] was tested, and the “% of control remaining” value was 123.631.
`COCCNC(=O)c1ccc(-c2ccccc2)nc1N(C)C` [CBK106049] was tested, and the “% of control remaining” value was 95.8594.
With `Cc1ccccc1NS(=O)(=O)c1cc(CN2C[C@@H](C)NC[C@@H]2C)c2occc2c1` [CBK103579T] the “% of control remaining” value was 93.5544.
In the case of `CCO[C@H]1COC[C@@H]1NC(=O)c1cccc2c1NCCC2` [CBK307113], the “% of control remaining” value is reported as 40.7593.
For `CCc1cc(C(=O)NC(c2ccc(F)cc2)c2nccn2C)n(C)n1` (stereo not shown) [CBK281434], the “% of control remaining” value was 92.9347.
For `CCNCCOc1c(C)cc(C)cc1C` [CBK270137C], the “% of control remaining” value was 69.722.
With `Cc1ccc(-c2nnc(CNC(=O)c3ccccc3-c3ccccc3)o2)s1` [CBK286298] the “% of control remaining” value was 100.524.
With `O=C(Nc1cccc([N+](=O)[O-])c1)c1cc(S(=O)(=O)N2CCCCC2)ccc1Cl` [CBK261367] the “% of control remaining” value was 104.432.
With `COc1ccc(OCC(=O)NNC(=O)c2cnccn2)cc1` [CBK262619] the “% of control remaining” value was 97.9556.
With `COCCC(=O)N1C[C@@H](c2cccc(F)c2)[C@@]2(CCCC(=O)N2)C1` [CBK283450] the “% of control remaining” value was 109.966.
For `Brc1ccc(NCc2ccccn2)cc1` [CBK026347], the “% of control remaining” value was 63.8289.
With `Cn1c(=O)n(C)c2cc(S(=O)(=O)NCC3(O)CCCNCC3)ccc21` (stereo not shown) [CBK306777] the “% of control remaining” value was 81.2082.
With `COc1ccc(Nc2nnc(-c3ccc(C(N)=O)cc3)c3ccccc23)cc1` [CBK264246] the “% of control remaining” value was 96.5462.
For `CCOC(=O)C1CSCCN1C(=O)c1ccc(-n2nc(C)cc2C)cc1` (stereo not shown) [CBK304517], the “% of control remaining” value was 57.1032.
With `C=CCNC(=O)Cn1c(-c2ccco2)cc2cccnc21` [CBK282719] the “% of control remaining” value was 120.965.
For `COc1ccc(-c2csc(NC(=O)c3ccccc3-c3ccccc3C(=O)O)n2)cc1` [CBK296076], the “% of control remaining” value was 89.7785.
In the case of `CCOc1ccc(OC(=O)c2ccc3c(c2)OCO3)cc1` [CBK149205], the “% of control remaining” value is reported as 88.4726.
With `N#Cc1sc2nc(C34CC5CC(CC(C5)C3)C4)ccc2c1N` [CBK267455] the “% of control remaining” value was 112.056.
With `Cc1cc(NC(=O)c2ccccc2)nc2c1c(=O)oc1ccccc12` [CBK291126] the “% of control remaining” value was 94.3359.
`O=C(NC1CCN(CC2(c3ccccc3)CC2)CC1)c1cc[nH]n1` [CBK285351] was tested, and the “% of control remaining” value was 76.3962.
With `O=C1NCCCC12CCN(Cc1cnc(N3CCOCC3)nc1)CC2` [CBK285528] the “% of control remaining” value was 80.5577.
`O=C1CC(Cc2ccccc2)C(=O)N1CCCn1ccnc1` (stereo not shown) [CBK265123G] was tested, and the “% of control remaining” value was 109.506.
With `O=C(CN1CCCC2(CCN(C(=O)Cc3c[nH]c4ccccc34)C2)C1)c1ccsc1` (stereo not shown) [CBK132053] the “% of control remaining” value was 105.369.
For `Cc1cc2nn(-c3ccccc3)nc2cc1NC(=O)c1ccc(-c2cccc([N+](=O)[O-])c2)o1` [CBK263859], the “% of control remaining” value was 113.798.
With `COc1ccc([C@@]23CC[C@@H](NC(=O)Nc4ccccc4C(F)(F)F)C[C@@H]2N(C)CC3)cc1OC` [CBK036466T] the “% of control remaining” value was 98.9867.
With `O=C(NCc1ccccc1)c1ccncc1` [CBK200189] the “% of control remaining” value was 101.34.
For `COc1ccc(-c2cc([C@H]3CN4CC[C@H]3C[C@@H]4CNC(=O)c3ccco3)n(C)n2)cc1` [CBK289099], the “% of control remaining” value was 122.278.
In the case of `COc1cccc2cc(C(=O)C3=C(O)C(=O)N(CCN4CCOCC4)C3c3ccc(F)cc3)oc12` (stereo not shown) [CBK266414], the “% of control remaining” value is reported as 127.179.
In the case of `CCC(C)(C)c1ccc(S(=O)(=O)NCCCN2CCCC2)cc1` [CBK044126], the “% of control remaining” value is reported as 92.5108.
For `Cc1ccc2c(c1C)NC(=O)CC2c1ccc(F)cc1` (stereo not shown) [CBK288221], the “% of control remaining” value was 112.841.
With `Cc1cc(C(F)(F)F)nn1CCCNC(=O)c1cc(-c2ccccc2)nc2ccccc12` [CBK267755] the “% of control remaining” value was 110.091.
`CCCC/C=C/c1nccnc1NCCCO` [CBK038006] was tested, and the “% of control remaining” value was 114.767.
`Cc1[nH]c(=O)[nH]c(=O)c1S(=O)(=O)N1CCOCC1` [CBK261060] was tested, and the “% of control remaining” value was 73.7285.
In the case of `Cc1cccc(-c2noc(CCC(=O)NCC3CCCO3)n2)c1` (stereo not shown) [CBK268241], the “% of control remaining” value is reported as 91.2497.
For `O=C(Nc1ccc(S(=O)(=O)NCCN2CCOCC2)cc1)N1CCCC1` [CBK270015], the “% of control remaining” value was 86.1412.
With `COc1ccc(OC)c(S(=O)(=O)N2CC[C@H]3CC(=O)N(CCN(C)C)CC[C@H]3C2)c1` [CBK288788] the “% of control remaining” value was 90.5898.
In the case of `CCCN(CCC#N)S(=O)(=O)c1ccc(C(C)C)cc1` [CBK043453], the “% of control remaining” value is reported as 87.8267.
For `COc1ccccc1OCc1ccc(Cl)s1` [CBK002782], the “% of control remaining” value was 24.4209.
`CCOC(=O)CSc1nc2ccccc2c(=O)n1Cc1ccccc1` [CBK054124] was tested, and the “% of control remaining” value was 89.0994.
In the case of `CN(C(=O)CN1CCN(c2cc(-c3cc(C(F)(F)F)cc(C(F)(F)F)c3)ncn2)CC1)c1ccccc1` [CBK091125], the “% of control remaining” value is reported as 126.878.
With `COc1cc(CNCCO)cc(Br)c1OCc1cccnc1` [CBK269681C] the “% of control remaining” value was 89.3285.
With `O=C(NC(NC1CCS(=O)(=O)C1)C(Cl)(Cl)Cl)c1ccc(Br)cc1` (stereo not shown) [CBK261091] the “% of control remaining” value was 87.8057.
For `COC(=O)c1ccc(NC(=O)CSc2nnc(-c3ccc(C)cc3)n2N)cc1` [CBK266114], the “% of control remaining” value was 89.7178.
In the case of `Cn1c(C(C)(C)C)cs/c1=N\NS(=O)(=O)c1ccccc1` [CBK006830B], the “% of control remaining” value is reported as 58.1955.
For `CC(C)Nc1nc(NC(C)C)nc(Oc2ccc(C=O)cc2)n1` [CBK265043], the “% of control remaining” value was 92.7219.
With `O=C(Nc1ccc2[nH]ccc2c1)c1cnc(-c2ccc(F)cc2)c(-c2ccncc2)c1` [CBK037451] the “% of control remaining” value was 95.6982.
With `Cc1ccc(OCC(=O)NNC(=O)C2COc3ccccc3O2)cc1` (stereo not shown) [CBK263511] the “% of control remaining” value was 100.486.
`O=C(O)CC1S/C(=N/N=C/c2ccc(-c3cccc([N+](=O)[O-])c3)o2)NC1=O` (stereo not shown) [CBK264517] was tested, and the “% of control remaining” value was 97.6568.
In the case of `CCCc1cc(=O)[nH]c2nnc(SCC(=O)NC)n12` [CBK287685], the “% of control remaining” value is reported as 116.256.
In the case of `O=C1CC(c2ccc3c(c2)OCO3)c2ccc3ccccc3c2N1` (stereo not shown) [CBK087469], the “% of control remaining” value is reported as 92.4364.
In the case of `O=c1cc(O)c2cc([N+](=O)[O-])ccc2n1CCc1ccccc1` [CBK291165], the “% of control remaining” value is reported as 124.612.
With `COc1cc(CNc2nc(-c3c(C)cccc3C)cn3ccnc23)cc(OC)c1OC` [CBK037415] the “% of control remaining” value was 108.863.
In the case of `COc1ccc([C@@]23CC[C@@H](NS(=O)(=O)Cc4ccccc4)C[C@@H]2N(C)CC3)cc1OC` [CBK056665T], the “% of control remaining” value is reported as 77.9253.
In the case of `O=C1N[C@@H](Cc2ccc(F)cc2)C(=O)N2CCN(C(=O)c3cccc(F)c3)C[C@H]12` [CBK289600], the “% of control remaining” value is reported as 73.2377.
For `O=C(NS(=O)(=O)c1ccccc1)c1ccccc1` [CBK288429], the “% of control remaining” value was 67.7292.
For `COC(=O)c1cn([C@H]2CO[C@H]3[C@@H]2OC[C@H]3OC(=O)Nc2ccccc2)nn1` [CBK289492], the “% of control remaining” value was 105.556.
With `Cc1noc(C)c1CC(=O)Nc1nc2c(cc1C#N)CCCC2` [CBK306429] the “% of control remaining” value was 41.4802.
For `O=[N+]([O-])c1ccc(N2CCN(S(=O)(=O)Cc3ccccc3)CC2)cc1N1CCN(Cc2ccccc2)CC1` [CBK264951], the “% of control remaining” value was 83.0788.
For `O=C(c1nccc2ccccc12)N1CCN(Cc2ccccc2)CC1` [CBK200176], the “% of control remaining” value was 113.402.
`CCNC(=O)Nc1ccc2ccc(-c3cccnc3)nc2n1` [CBK070652] was tested, and the “% of control remaining” value was 80.7084.
`Cc1sc2nc(C(C)C)n(C3CCNCC3)c(=O)c2c1C` [CBK282407] was tested, and the “% of control remaining” value was 101.172.
With `COc1cccc(C(NC(=O)C2CCN(C(=O)c3ccccc3)CC2)c2ccccn2)c1` (stereo not shown) [CBK060036] the “% of control remaining” value was 99.6871.
`COCCNC(=O)c1ccc(-c2cc(C(C)C)ccc2OC)nc1N(C)C` [CBK106061] was tested, and the “% of control remaining” value was 106.716.
In the case of `CC1(CNC(=O)c2ccc(N3CCCCC3)cc2)COC1` [CBK281746], the “% of control remaining” value is reported as 81.1833.
With `CC1CCN(CC(O)c2ccc3c(c2)CCCN3C(=O)C2CC2)CC1` (stereo not shown) [CBK282488] the “% of control remaining” value was 117.504.
For `O=C(O)CCCn1cc(NC(=O)Cc2ccccc2F)cn1` [CBK270119], the “% of control remaining” value was 101.101.
`CS(=O)(=O)Nc1cc2ccccc2c(-c2ccncc2)n1` [CBK085746] was tested, and the “% of control remaining” value was 94.6861.
For `COc1cc(/C=N/n2cnnc2)ccc1OCc1cccc(C(=O)O)c1` [CBK264249], the “% of control remaining” value was 93.0765.
In the case of `CCn1c(C)nn(-c2nc3c(Cl)cccc3s2)c1=O` [CBK026010], the “% of control remaining” value is reported as 36.2683.
`Cc1ccc2c(c1)C(NC(=O)C1CC1C)CC1(CCOCC1)O2` (stereo not shown) [CBK284880] was tested, and the “% of control remaining” value was 98.1675.
With `C=CCN1CC2(c3ccccc3)CN(CC=C)CC(c3ccccc3)(C1)C2=O` [CBK265987] the “% of control remaining” value was 90.439.
With `CC1CN(c2ccc(CNc3ncccc3C#N)cn2)CCO1` (stereo not shown) [CBK305957] the “% of control remaining” value was 65.1142.
In the case of `Nn1cnn2c(SCC(=O)Nc3ccc(Cl)cc3)nnc12` [CBK025688], the “% of control remaining” value is reported as 86.7934.
In the case of `O=c1[nH]c2ncc(-c3ccc(-c4ccccc4)cc3)nc2n1Cc1cccnc1` [CBK064282], the “% of control remaining” value is reported as 131.999.
With `O=C(COC(=O)c1cc(S(=O)(=O)N2CCCCC2)c(Cl)cc1Cl)c1ccccc1` [CBK261668] the “% of control remaining” value was 92.3243.
For `CN(CC(=O)N1CCOCC1)S(=O)(=O)c1ccc2ccccc2c1` [CBK266946], the “% of control remaining” value was 98.2081.
`COc1cc(Nc2cc(-c3cccc(N)c3)nc3ccnn23)cc(OC)c1OC` [CBK037236] was tested, and the “% of control remaining” value was 83.0671.
With `CCCc1ccc(N(C)C(=O)c2ccc(C(C)(C)C)cc2)cc1` [CBK161612] the “% of control remaining” value was 66.8839.
In the case of `OCCN1CCN(c2ccc(/C=C/c3ccccc3)cn2)CC1` [CBK036849], the “% of control remaining” value is reported as 122.279.
